In PubChem BioAssay AID360 (National Center for Advancing Translational Sciences (NCATS), 2006):
Out of some 48,000 compounds screened, about 550 (1.1%) were called active. The shares of active, inactive and inconclusive entries below differ from those in the screen. Rule as the data show it: active = potency below about 15 µM; inconclusive = mostly about 16 µM to 33 µM; inactive = weaker than that. Where the call is inconclusive, the potency comes from a doubtful curve fit.

biological target: Lysosomal acid glucosylceramidase (Homo sapiens) (UniProt P04062); assay: Glucocerebrosidase; settings: purified enzyme, resorufin glucoside fluorescence (screen aimed at inhibitors), 20 min;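 also: the screen sought inhibitors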
In short: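 Compounds titrated against 0.2 nM normal enzyme, 30 uM resorufin beta-D-glucopyranoside substrate, citrate/phosphate buffer with taurocholate and tween-20, pH 5.9. Reaction ran 20 min at room temperature; fluorescence (Ex 548/Em 600) gave AC50.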
Potency is read from the fitted curve at half-maximal effect.

UniProt P04062, sequence (P04062 whole entry, looked up): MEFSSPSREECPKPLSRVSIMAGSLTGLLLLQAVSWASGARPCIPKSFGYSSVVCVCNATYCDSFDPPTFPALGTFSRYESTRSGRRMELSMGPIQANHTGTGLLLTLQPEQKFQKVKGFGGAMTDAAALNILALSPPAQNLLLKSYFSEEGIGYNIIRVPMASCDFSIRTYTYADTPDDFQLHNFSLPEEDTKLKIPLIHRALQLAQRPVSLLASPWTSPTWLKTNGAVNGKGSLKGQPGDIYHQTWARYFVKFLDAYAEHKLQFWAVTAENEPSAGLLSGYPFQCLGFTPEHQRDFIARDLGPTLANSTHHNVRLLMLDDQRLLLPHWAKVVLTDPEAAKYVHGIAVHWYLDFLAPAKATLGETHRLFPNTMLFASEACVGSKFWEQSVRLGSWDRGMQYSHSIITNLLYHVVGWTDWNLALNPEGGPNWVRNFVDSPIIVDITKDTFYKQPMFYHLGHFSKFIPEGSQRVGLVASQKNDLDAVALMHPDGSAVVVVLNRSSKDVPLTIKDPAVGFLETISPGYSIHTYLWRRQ

Potency, inactive:
COc1ccc(CCN2CC(O)=C(c3nc4ccccc4c(=O)[nH]3)C2=N)cc1OC > 76.9 µM, COc1ccc(NC(=O)N(CCCN(C)C)Cc2cc3cc(OC)ccc3[nH]c2=O)cc1 > 76.9 µM, CC(=O)c1cc2c(cc1NC(=O)CN1CCOCC1)OCO2 > 76.9 µM, C=CCc1ccc(OCCCCCN2CCOCC2)c(OC)c1, COc1ccccc1C(=O)Nc1ccc2c(c1)OCCO2 > 76.9 µM, COc1cccc2cc(-c3nc(-c4cccs4)cs3)c(=O)oc12 > 76.9 µM, CCCCOc1ccc(C(=O)Nc2ccc(N3CCN(C)CC3)cc2)cc1 > 76.9 µM, Cn1c(CSCc2ccc(F)cc2)nnc1SCC(=O)Nc1nccs1 > 76.9 µM, C=CCN=C1SC(C)C(=O)N1S(=O)(=O)c1ccccc1 (centres undefined) > 76.9 µM, O=c1c2cc(N3CCOCC3)ccc2[nH]c(=S)n1CCCN1CCCCCC1 > 76.9 µM, CN(C)CCNS(=O)(=O)c1ccc(Cl)cc1 > 76.9 µM

Potency, inconclusive:
COC(=O)/C=c1/sc2nc3ccccc3n2c1=O 27.4 µM [decreasing], O=C(NC1=NCCS1)c1ccc(OCC2CCCO2)cc1 (centres undefined) 25.9 µM [decreasing], COc1ccc(Nc2nc(-c3sc(N)nc3C)cs2)cc1 20.6 µM [decreasing], N[C@@H](Cc1ccccc1)c1nnc(SCc2ccccc2Cl)o1 32 µM [decreasing], CS(=O)(=O)N1CCC(C(=O)Nc2ccc(Cl)c(C(F)(F)F)c2)CC1 25.7 µM [decreasing], O=C(NCCSCc1ccco1)Nc1ccc(Cl)cc1 17 µM [decreasing], CN(C)c1ccc(NC(=O)CSCc2nc3c(nnn3Cc3ccc(F)cc3)c(=O)[nH]2)cc1 26.5 µM [decreasing], CC(C)(C)OC(=O)N1CC=C2C(C#N)=C(N)C(C#N)(C#N)C(c3cccs3)C2C1 (centres undefined) 23.8 µM [decreasing], C=CCOc1ccc(C2N3CC4(CC)CN2CC(CC)(C3)C4=O)cc1 (centres undefined) 20 µM [decreasing], COCCn1c(=O)[nH]c2cc(C(=O)NCCc3ccc(OC)c(OC)c3)ccc2c1=O 17.1 µM [decreasing], O=C1CN(C(=O)c2ccc(Br)o2)C(c2ccc(F)cc2)c2cc(Cl)ccc2N1 (centres undefined) 16.8 µM [decreasing], CCc1nnc(NC(=O)C2CCN(c3nccc(C)n3)CC2)s1 24.8 µM [decreasing], CN(C)c1ccc(NC(=O)CN2CCN(S(=O)(=O)c3cc(Cl)ccc3Cl)CC2)cc1 20.7 µM [decreasing], N=c1c(S(=O)(=O)c2ccc(Cl)cc2)cc2c(=O)n3ccccc3nc2n1CCN1CCOCC1 17.2 µM [decreasing], COc1cc2cc(C(c3nnnn3C(C)(C)C)N3CCc4ccccc4C3)c(=O)[nH]c2cc1OC (centres undefined) 15.5 µM [decreasing], Cc1ccc(N(C(=O)Nc2ccccc2)C2=NCC(C)S2)cc1 (centres undefined) 19.1 µM [decreasing], COC(=O)c1cc(OC)c(OC)cc1NC(=O)Cn1nnc(-c2ccccc2Cl)n1 20.8 µM [increasing], Nc1[nH]c(=S)[nH]c(=O)c1-c1ccccc1 30.4 µM [decreasing], N#Cc1ccccc1NC(=O)c1ccc(-c2ccccc2Cl)o1 15.6 µM [increasing], COc1ccc2nc(NC(=O)CSc3nnnn3C3CCCCC3)sc2c1 33.1 µM [decreasing], CCOC(=O)c1ccc(OCC(=O)c2ccc(O)cc2O)cc1 23.1 µM [decreasing], O=C1c2cccnc2C(Nc2ccc(S(=O)(=O)N3CCCCCC3)cc2)N1Cc1ccccc1 (centres undefined) 17.5 µM [decreasing], CCCOC(=O)c1ccc(NS(=O)(=O)c2cccs2)cc1 22.5 µM [decreasing], O=C(CSCC(=O)N1CCCCC1)OCC(=O)c1c[nH]c2ccccc12 22.7 µM [decreasing], CC(C)Cn1c2nc3ccccc3nc2c2c(=O)n(CCN3CCOCC3)cnc21 19.1 µM [decreasing], O=C(Nc1ccc2c(c1)OCO2)C1CCN(S(=O)(=O)c2ccc3c(c2)OCCO3)CC1 17 µM [decreasing], O=C(Nc1ccc(S(=O)(=O)N2CCCCC2)cc1)c1ccncc1 17.1 µM [decreasing], CC1CCN(C(=O)C2CCN(C(=O)c3cc4sccc4n3Cc3ccc(F)cc3)CC2)CC1 26.3 µM [decreasing], O=C(CSc1nc(-c2ccc(F)cc2)cs1)NC(=O)NCc1ccco1 25.7 µM [decreasing], CCOC(=O)c1ccc(NC(=O)c2nn(CC)cc2Br)cc1 19.9 µM [increasing], CC(C(=O)N1CCCc2c1c(=O)oc1ccc(O)cc21)N1CCc2ccccc2C1 (centres undefined) 17.6 µM [decreasing], CCNc1sc(C(=O)c2cccs2)c(N)c1-c1nc2ccccc2s1 29.4 µM [increasing], O=C1CCCN1CCCNc1ncnc2c1[nH]c1ccc(Cl)cc12 23.2 µM [decreasing]

Potency, active:
CCOC(=O)N1CC=C2C(C#N)=C(N)C(C#N)(C#N)[C@H](c3ccccc3OCC)[C@H]2C1 8.55 µM, O=C(NCCN1CCOCC1)c1ccc2c(c1)ncn2C1CCCCC1 14.7 µM, CC(C)n1c(CNC(=O)c2ccccc2)nc2ccccc21 8.43 µM, Cc1ccc(N(CC(=O)NC2CCCCCC2)S(=O)(=O)c2c(C)nn(C)c2C)cc1 14.6 µM, Oc1cc2ccccc2cc1-c1n[nH]c(=S)o1 12.4 µM
